# Whole data set: some 110,000 compounds, median “z-score” near -0.1, cut for the highest 2% near 2. The list shows a part of the results.
# Molecular target: Metabotropic glutamate receptor 8 (Rattus norvegicus) (UniProt P70579)
# Test: mGluR8 Gi/Go-coupled signaling modulation – cell-based, rat, thallium flux, HTS, primary screen (AID 488969)
# Conditions: HEK293 rat mGluR8, GIRK (G protein-gated inwardly rectifying potassium channel) thallium flux, FluoZin2; at 10 µM; stronger effect = higher value; submaximal glutamate (EC20) added with thallium
# Chain of UniProt P70579 (P70579 whole entry, looked up): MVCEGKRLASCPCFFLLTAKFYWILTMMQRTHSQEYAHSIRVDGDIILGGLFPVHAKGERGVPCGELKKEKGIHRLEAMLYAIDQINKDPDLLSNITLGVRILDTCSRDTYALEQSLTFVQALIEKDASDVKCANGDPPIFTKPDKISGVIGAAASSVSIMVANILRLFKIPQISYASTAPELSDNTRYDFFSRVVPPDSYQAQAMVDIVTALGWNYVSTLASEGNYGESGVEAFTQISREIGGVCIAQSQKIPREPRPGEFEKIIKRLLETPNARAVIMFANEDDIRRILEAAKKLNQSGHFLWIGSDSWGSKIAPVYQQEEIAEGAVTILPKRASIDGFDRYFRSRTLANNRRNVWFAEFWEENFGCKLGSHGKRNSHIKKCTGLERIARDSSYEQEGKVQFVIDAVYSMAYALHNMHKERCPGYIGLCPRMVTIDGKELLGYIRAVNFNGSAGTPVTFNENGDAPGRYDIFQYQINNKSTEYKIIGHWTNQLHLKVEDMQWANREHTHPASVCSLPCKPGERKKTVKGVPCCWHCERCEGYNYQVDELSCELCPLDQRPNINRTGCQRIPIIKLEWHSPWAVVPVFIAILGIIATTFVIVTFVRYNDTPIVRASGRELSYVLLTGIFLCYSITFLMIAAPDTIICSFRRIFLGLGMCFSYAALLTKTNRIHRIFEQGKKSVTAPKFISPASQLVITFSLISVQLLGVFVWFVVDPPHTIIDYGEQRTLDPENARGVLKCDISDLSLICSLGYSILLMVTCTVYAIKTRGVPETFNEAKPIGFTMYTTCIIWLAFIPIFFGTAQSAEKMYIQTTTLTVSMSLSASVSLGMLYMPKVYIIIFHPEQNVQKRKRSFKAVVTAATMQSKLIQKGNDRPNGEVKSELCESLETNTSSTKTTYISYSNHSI
row,Structure (SMILES),z-score
1,CCOC(=O)Cc1csc(NC(=O)CN(C)S(=O)(=O)c2cccc3cccnc23)n1,-0.861
2,COC(=O)C(C)(C)NC(=O)c1cccs1,0.202
3,Cc1ccc(S(=O)(=O)N/N=C\C=C\c2ccccc2)cc1,0.0901
4,CSCC[C@H](NC(=O)c1cccc([N+](=O)[O-])c1C)c1nc2ccccc2[nH]1,-0.189
5,O=C1c2ccccc2C(Nc2ccc(Cl)cn2)N1Cc1ccccc1 (stereo unspecified),-0.981
6,COc1cccc(NC(=O)CSc2nnc(C)s2)c1,0.406
7,CCC1CCCCN1CCNC(=O)C1CCN(S(=O)(=O)c2c(C)noc2C)CC1 (stereo unspecified),0.663
8,Cc1ccc(C(=O)C[n+]2cc(-c3ccc(C)cc3)n3c2CCCCC3)cc1,-0.00401
9,CCc1nnc(SCc2cn3c(C)cc(C)nc3n2)n1N,-0.0749
10,COc1cccc(/C=N/NC(N)=S)c1OS(=O)(=O)c1ccccc1,-0.0118
11,CCOC(=O)C1=C(C)C(c2ccccc2OC)NC(=O)N1 (stereo unspecified),0.0111
12,CCOC(=O)NCN1C(=O)C2C3C=CC(C3)C2C1=O (stereo unspecified),0.216
13,O=C1C2(c3ccccc3)CN(CCCO)CC1(c1ccccc1)CN(CCCO)C2,-0.0275
14,COc1ccc(C2CC(=O)C3=C(C2)NC(C)=C(C(=O)Nc2ccccc2C)C3c2coc3ccc(C)cc3c2=O)cc1OC (stereo unspecified),-0.17
15,Cc1ccnc(NC(=O)CCc2c(C)nc3ncnn3c2C)c1,0.246
16,O=S1(=O)N=C(Oc2cccc3ccccc23)c2ccccc21,0.0873
17,COC(=O)CCC(=O)c1oc2ccccc2c1N,-0.127
18,O=C(CCn1c(=O)oc2ccccc21)N1CCN(c2ccccc2Cl)CC1,0.839
19,COc1cccc(CNS(=O)(=O)/C=C/c2ccc3c(c2)OCO3)c1,-0.117
20,COc1cc(NS(=O)(=O)c2ccc(N/C=C\C(=O)c3ccc(OC)c(OC)c3)cc2)nc(OC)n1,-0.305
21,S=C(NCc1cccs1)Nc1ccccc1Cl,-0.146
22,CC1(C)CC(C2N3CC4(C)CN2CC(C)(C3)C4=O)CCO1 (stereo unspecified),-0.134
23,COc1cccc(NC(=O)CSc2nc3c(oc4ccccc43)c(=O)[nH]2)c1,-0.709
24,Clc1ccc(CNC2CCCC2)cc1,0.561

row,Structure (SMILES),z-score
1,CC(C)c1nc(SCC(=O)N2CCOCC2)c2c(=O)n(C)c(=O)n(C)c2n1,-0.272
2,Cn1c(CCN2CCOCC2)nc2cc(NC(=O)COc3ccccc3)ccc21,-0.509
3,CNS(=O)(=O)c1cccc(C(=O)OCC(=O)/C=C2/N(C)c3ccccc3C2(C)C)c1,-0.421
4,COCCNC(=S)N/N=C/c1ccccc1C(=O)O,-0.187
5,Cc1ccc(C(=O)COc2cccc(NC(=O)c3ccco3)c2)cc1,-0.642
6,O=C(NCC1CCCO1)C1CCCN(S(=O)(=O)c2cccc3nsnc23)C1 (stereo unspecified),0.749
7,Cc1cc(C)n(-c2nc(N(C)C)nc(N(C)C)n2)n1,1.04
8,O=C(Nc1ccc(Br)cc1)c1cccc(N2C(=O)C3C4CCC(C4)C3C2=O)c1 (stereo unspecified),-0.317
9,C#CCNc1nc(C)nc2c1nnn2Cc1ccccc1F,-1.29
10,c1coc(CN2CN=C(Nc3nc4ccccc4s3)NC2)c1,-0.425
11,Cc1noc(C)c1C(=O)OC(C(=O)NC1CCCC1)c1ccc(F)cc1 (stereo unspecified),0.659
12,CCOc1ccc(NC(=O)c2cccc3c2C(=O)N(CCOC)C3)cc1,0.0598
13,C=CCOc1ccc(CN(C)CC(=O)N(CC(C)C)c2c(N)n(CC(C)C)c(=O)[nH]c2=O)cc1,-0.182
14,C=CCNC(=S)NNC(=O)c1cccc(Br)c1,-0.0521
15,COC(=O)c1ccc(CC(=O)c2c(C)cc(O)cc2O)o1,0.162
16,Cc1cc(C)cc(C(=O)N(NC(=O)Nc2ccc(Cl)cc2)C(C)(C)C)c1,-0.37
17,CSc1ccccc1C(=O)NC1CCCCCC1,-0.167
18,Cc1cccc2sc(NC(=O)C3c4ccccc4Oc4ccccc43)nc12,0.152
19,Cc1ccccc1CSCCNS(C)(=O)=O,-0.0619
20,Cc1ccc(NC(=O)CN2C(=O)S/C(=C\c3ccc(-c4cccc(C(=O)O)c4C)o3)C2=O)cc1,-0.792
21,O=C1NC2(CCCCCC2)N=C1c1ccc(F)cc1,-0.0831
22,COc1ccc(-c2ccc(OC)cc2)cc1,0.26
23,O=C(N/N=C/c1sc(=O)n(-c2ccccc2)c1Cl)c1ccccc1,0.378
24,O=C(NCCCN1CCOCC1)c1cc2cc(Cl)cc(Cl)c2oc1=O,0.221

row,Structure (SMILES),z-score
1,CCn1c(CC(=O)Nc2ccc(C)c(Cl)c2)nnc1SCCOc1ccc(OC)cc1,-0.101
2,Nc1nonc1-n1nnc(C(=O)c2ccccc2)c1-c1ccccc1,-0.175
3,CCCCCC1CC(CC(=O)Nc2nncs2)C(=O)O1 (stereo unspecified),0.0374
4,Cc1ccc2cc(CN(Cc3ccco3)S(=O)(=O)c3c(C)ccc4nsnc34)c(=O)[nH]c2c1,-0.0836
5,CCOC(=O)N1CCN(Cc2nc(N)nc(Nc3ccc(OC)cc3)n2)CC1,0.119
6,C/C(=N\NC(=O)CSCc1ccc([N+](=O)[O-])cc1)c1ccccc1O,0.0621
7,Cc1ccc(/C=C2\Sc3ccccc3C2=O)s1,-0.127
8,Cc1cccc(Cc2c(C)nc3nc(SCC(=O)NCc4ccco4)nn3c2C)c1,-0.909
9,Cc1ccc(NCCC(=O)c2ccc(Cl)cc2)cc1C,-0.234
10,Cc1cc(NC(=O)CN2CCC(O)(c3cccc(F)c3)CC2)no1,-0.799
11,O=C(NCCc1ccccc1)C(=O)NCC1CCCO1 (stereo unspecified),0.353
12,CNC(=O)CN(c1ccc(F)cc1)S(=O)(=O)c1cc(C)ccc1OC,-0.321
13,O=C(c1cccc(C(F)(F)F)c1)N1CCN(c2cc(=O)[nH]nc2-c2ccccc2)CC1,-0.449
14,CN(C)S(=O)(=O)c1ccc2nc(NC(=O)c3cccs3)sc2c1,-0.127
15,CCCNS(=O)(=O)c1ccc(C(=O)NCC2CCCO2)cc1 (stereo unspecified),-0.395
16,FC(F)(F)c1cc(-c2ccccc2)nc(NCc2cccnc2)n1,-0.506
17,NC(=O)CN1N=C(c2cc(Cl)sc2Cl)CSC1=O,0.181
18,O=C(COC(=O)c1cccc(C(=O)OCC(=O)c2ccc(Br)cc2)n1)c1ccc(Br)cc1,-0.199
19,Cn1c(=O)c2c(ncn2Cc2ccc(Cl)c(Cl)c2)n(C)c1=O,1.2
20,Cc1cc(C)c2c(n1)sc1c(N3CCOCC3)ncnc12,-0.159
21,CCOC(=O)CN(Cc1sccc1C)C(=O)Nc1cccc(OC)c1,-0.0998
22,Cc1cs/c(=N/C(=S)Nc2ccccc2)n1C,0.0604
23,Cc1ccccc1Oc1cc(NC(=O)CCCn2nc(C)c([N+](=O)[O-])c2C)cc([N+](=O)[O-])c1,-0.437
